In paper PMC6919601, “Identification of Plasmodium dipeptidyl aminopeptidase allosteric inhibitors by high throughput screening” (PLoS ONE, 2019):
The campaign covered roughly 110,000 compounds. About 230 (0.21%) showed an effect of 50% or more. Some of the results follow.

biological target: DPAP1 (Plasmodium falciparum, UniProt Q8IIJ9); test: primary screen, percent inhibition; read by cleavage of a fluorogenic dipeptide substrate; higher = more effect of the substance; design: species or system P. falciparum D10 trophozoite lysates; single well
Sequence (Q8IIJ9 whole entry, looked up): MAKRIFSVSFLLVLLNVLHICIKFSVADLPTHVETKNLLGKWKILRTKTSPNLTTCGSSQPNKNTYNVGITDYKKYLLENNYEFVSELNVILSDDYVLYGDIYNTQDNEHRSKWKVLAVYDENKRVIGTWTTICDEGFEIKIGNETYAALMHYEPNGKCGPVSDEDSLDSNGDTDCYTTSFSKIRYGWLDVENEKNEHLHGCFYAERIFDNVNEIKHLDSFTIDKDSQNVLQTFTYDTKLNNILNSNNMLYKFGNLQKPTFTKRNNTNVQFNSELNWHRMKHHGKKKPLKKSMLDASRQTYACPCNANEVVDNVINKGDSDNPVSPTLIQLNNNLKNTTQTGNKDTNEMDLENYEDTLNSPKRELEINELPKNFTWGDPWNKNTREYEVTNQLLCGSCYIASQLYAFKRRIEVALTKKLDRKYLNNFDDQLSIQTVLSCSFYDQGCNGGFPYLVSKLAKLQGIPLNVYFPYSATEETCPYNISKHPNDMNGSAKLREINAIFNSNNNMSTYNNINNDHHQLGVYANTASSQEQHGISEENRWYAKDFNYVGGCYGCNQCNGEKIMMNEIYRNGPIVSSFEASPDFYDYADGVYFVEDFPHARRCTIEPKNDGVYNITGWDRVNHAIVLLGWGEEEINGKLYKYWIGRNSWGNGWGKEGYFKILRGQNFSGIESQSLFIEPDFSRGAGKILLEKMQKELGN
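Further: 30 min substrate incubation versus DMSO and 10 µM JCP410 controls.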

SMILES | % Inhibition @ 10 uM
COc1ccc(S(=O)(=O)N(CC(=O)Nc2ccccc2C)c2ccccc2)cc1OC | -6.3%
Cc1ccc2[nH]c3nc(S)nnc3c2c1 | 12.4%
COc1ccccc1C(=O)Nc1cccnc1Cl | 2.48%
COc1ccc(CC(=O)NC23CC4CC(CC(C4)C2)C3)cc1 | -6.17%
CN(Cc1ccccc1)C(=O)CN(C)S(=O)(=O)c1cc(Br)cnc1N | 1.68%
O=C1CC(Cc2ccccc2)C(=O)N1c1ncccn1 (stereo not drawn) | -5.15%
O=C(Nc1ccc(S(=O)(=O)NCCc2ccccc2)cc1)c1ccc(Br)o1 | 4.57%
Cc1cc(Cl)ccc1OCC(=O)NCc1ccncc1 | -4.37%
CC(C)(C)NC(=O)C1C(=O)CNC23CCCCC2C1c1ccccc1O3 (stereo not drawn) | -3.75%
Cc1cc(NCCN2CCOCC2)c2ccc3ccccc3c2n1 | -5.85%
Cc1c(C(=O)N2CCN(C)CC2)oc2c3c(ccc12)OCCO3 | -0.415%
N#CC1=C(N)Oc2cc(O)ccc2C1c1ccc(Cl)c(Cl)c1 (stereo not drawn) | 5.08%
COc1ccc(CCNC(=O)c2ccc(CSc3nc4ccncc4[nH]3)cc2)cc1OC | 3.4%
CCN(CC)CCNC1CCN(CCc2ccccc2)CC1 | -3.8%
CC(C)C(=O)N1CCN(c2ccc(NC(=O)c3ccc(Br)o3)cc2)CC1 | -0.519%
Fc1ccc(N2CCN(CCc3ccccc3)CC2)cc1 | 1.74%
CCOc1ccccc1C1Nc2ccccc2N=C2CC(C)(C)CC(O)=C21 (stereo not drawn) | 0.687%
Fc1ccc(CSc2ccc(-c3cccs3)nn2)cc1 | 1.68%
Cc1nc2ccccc2nc1Sc1ccccc1 | -1.17%
CC(C)NS(=O)(=O)c1ccc(OCC(=O)Nc2ccc(Br)cc2F)cc1 | 5.66%
CCOC(=O)N1CCN(C(C)Cc2ccccc2F)CC1 (stereo not drawn) | 0.472%
Cc1ccccc1OCCCN1CCOCC1 | 2.13%
O=C1CCCc2c1nc(-c1cccc([N+](=O)[O-])c1)n2O | 0.247%
CC(c1ccccc1)N1CC(C(=O)NC2CCCC2)CC1=O (stereo not drawn) | -1.21%
O=C(c1n[nH]cc1[N+](=O)[O-])N1CCOCC1 | 5.77%
CC1CCN(S(=O)(=O)c2ccc(Cl)cc2)CC1 | -4.4%

SMILES | % Inhibition @ 10 uM
COc1cc(OC)c([N+](=O)[O-])nc1OC | 4.22%
COC(=O)c1sc2nc(C)c([N+](=O)[O-])c(C)c2c1N | 0.51%
Cc1cc(C(=O)NCCN2CCOCC2)c2c(C)nn(-c3cccc(Cl)c3C)c2n1 | 1.5%
CCCC(C)C1(CC)C(=O)N=C(Nc2ccccc2C)NC1=O (stereo not drawn) | 5.39%
Cc1ccccc1OCc1nn2c(-c3cccc(Cl)c3)nnc2s1 | 6.01%
CCC(NC(=O)NCCc1ccccc1)(C(F)(F)F)C(F)(F)F | -6.84%
OCC1CCCN(Cc2ccc(F)c(F)c2)C1 (stereo not drawn) | -1.5%
Cc1cc2c(cc1C)NC(c1ccsc1)C1=C(O)CC(C)(C)CC1=N2 (stereo not drawn) | 2.46%
COc1cccc2cc(C(=O)O)c(=O)oc12 | -11.5%
COc1ccc(C(=O)N2CCN(Cc3ccc(C)cc3)CC2)cc1OC | -1.11%
CCN(CC)C(=O)Cn1nnc(-c2cc(OC)c(OC)c(OC)c2)n1 | 0.9%
O=C(c1ccccc1)c1ccccc1C(=O)N1CCOCC1 | -2.39%
C=C(C)CN(CC)C1CCN(CCC)CC1 | -4.14%
CCOc1cc(C2C(C#N)=C(N)Oc3cc4c(cc32)OCO4)ccc1OCc1cccc(F)c1 (stereo not drawn) | 0.565%
CN(C)c1ccc(CN2CCN(c3cccc(Cl)c3)CC2)cc1 | 3.8%
COc1ccc(OCCCCN2CCOCC2)cc1 | -3.94%
COc1ccc(/C=C/C(=O)O)cc1S(=O)(=O)NCc1cccnc1 | 0.147%
CN(C)CCNC(=O)c1cn(C2CCCCC2)c(=O)c2c1c1ccccc1n2C | -3.39%
COc1ccc(S(=O)(=O)NCCc2ccc(OC)c(OC)c2)cc1 | 1.57%
CCC(C)NC(=O)c1cnn2c1NC(c1ccc(Br)cc1)CC2C(F)(F)F (stereo not drawn) | 3.8%
Oc1nc2c(s1)C1c3c(ccc4ccccc34)OCC1CS2 (stereo not drawn) | 4.32%
Cc1cc(-c2ccc(C)c(S(=O)(=O)Nc3ccc(Cl)cn3)c2)on1 | 2.35%
O=C(c1oc(=O)c2ccccc2c1-c1ccccc1)N1CCN(C2CCCCC2)CC1 | -3.58%
CC(C)c1ccc(OCc2ccc(C(=O)N(C)C)o2)cc1 | -1.55%
Cc1ccc(C(=O)Nc2sc3c(c2C#N)CCCC3)cc1S(=O)(=O)N1CCCC1 | 0.746%
Cc1ccc(S(=O)(=O)N2CCN(C(=O)c3ccccc3)C2c2ccccc2)cc1 (stereo not drawn) | 6.11%

SMILES | % Inhibition @ 10 uM
O=C(O)C1CCCCC1C(=O)NCc1ccccn1 (stereo not drawn) | 0.727%
COc1ccc(S(=O)(=O)N(C)CC(=O)NC(C)(C)C)cc1OC | 2.44%
Cc1ccc(Cn2c(=O)c3ccccc3n3c(CCC(=O)NCCC4=CCCCC4)nnc23)cc1 | 3.97%
COc1ccc(-n2c(Cc3cccn3C)nnc2SCC(=O)NCc2ccccc2)cc1 | -3.95%
CCCS(=O)(=O)c1c(S(=O)(=O)CCC)c2cc(CC)ccn2c1C(=O)OC | -3.28%
Cc1c(C(=O)N(C)C2CCCCC2)sc2nc(-c3ccccc3)cn12 | -0.138%
OCC1CCCCN1Cc1ccc(F)cc1 (stereo not drawn) | 3.53%
NC1=C(c2nc3ccccc3s2)C(=O)CN1Cc1ccccc1Cl | 0.486%
CSc1ncc(C(=O)NCc2cccc(Cl)c2)c(-c2ccccc2)n1 | 1.11%
COc1ccc(C(=O)Nc2cc(C)ccc2C)cc1OC | 2.65%
O=c1oc2cc(-n3nc4ccc5ccccc5c4n3)ccc2cc1-c1ccccc1 | 3.74%
O=C(Nc1ccccc1C(=O)NC1=NCCS1)c1ccc(Cl)cc1 | -2.29%
Cc1ccsc1C(C#N)NC(=O)C(Cc1c(F)cccc1F)NC(=O)c1ccc(-c2ccccc2Cl)cc1 (stereo not drawn) | 5.76%
O=C(Cn1ncc2c(=O)oc3ccccc3c21)NCC1COc2ccccc2O1 (stereo not drawn) | 2.39%
CN(Cc1ccccc1)C(=O)CCNS(=O)(=O)c1cc(Br)cnc1N | 1.68%
O=C(CC1CC2CCC1C2)NC1CCCCCCC1 (stereo not drawn) | 1.88%
Cc1ccc(S(=O)(=O)Nc2ccccc2SC(F)F)cc1 | 5.53%
CCCCN(C)C(=O)/C(=C/c1cn(C)c2ccccc12)NC(=O)c1ccco1 | -0.235%
CCN(CC)CCNC(=O)Cn1cnc2sc(C)c(S(=O)(=O)N3CCOCC3)c2c1=O | -2.9%
Cc1ccc(C(=O)/C=c2\[nH]c(=O)/c(=C/c3cccnc3)s2)cc1 | -0.828%
Cc1cccc(N2CCN(C(=O)N[C@@H](CC(C)C)C(=O)NCC#N)CC2)c1C | -3.48%
COc1ccc(C2C(C#N)=C(N)Oc3c2c(=O)oc2ccccc32)cc1C (stereo not drawn) | 5.77%
CCN1CCN(C(=O)c2ccc(Cn3c(SCc4ccccc4F)nc4ccncc43)cc2)CC1 | -3.67%
C=CCN1c2ccccc2Oc2nc3ccccc3nc21 | 0.381%
CCc1ccc(NC(=O)c2csc3c2CCCC3)cc1 | -0.132%
Cc1sc(NC(=O)CSc2nc(O)c(C#N)c(-c3ccccc3)n2)nc1-c1ccccc1 | 0.777%

SMILES | % Inhibition @ 10 uM
CN1C(=O)N(C)C2(Nc3ccccc3N(C)C2=O)C1=O (stereo not drawn) | 2.65%
O=C(Cn1ncc2c3ccccc3n(Cc3ccccc3F)c2c1=O)NCCc1c[nH]c2ccccc12 | -0.0741%
Cc1ccc(C)c(C2=CSC3=NCCN23)c1 | 1.39%
O=S1c2ccccc2C(O)N1c1ccccc1 (stereo not drawn) | 2.13%
COCCN1C(=O)c2ccccc2C(C(=O)NCc2ccc(C)o2)C1c1cn(C)c2ccccc12 (stereo not drawn) | 0.738%
N#CC1=C(N)Oc2ccc3ccc(O)cc3c2C1c1ccc(Br)cc1 (stereo not drawn) | 1.82%
COc1ccc(-c2c(Cl)nc(N3CCCCC3)c(=O)n2-c2ccccc2)cc1OC | -5.63%
CN1C(=O)C(O)(CC(=O)c2ccccn2)c2ccccc21 (stereo not drawn) | -5.14%
O=C(CCCCn1c(=O)[nH]c2ccsc2c1=O)NCCc1ccc(Cl)cc1 | -0.228%
COC(=O)C1=C(C)N(CCc2ccccc2)C(=O)/C1=C\c1cc2c(cc1Br)OCO2 | -1.6%
COc1ccc(-c2csc(/C(C#N)=C\Nc3ccccc3C)n2)cc1 | -3.26%
Cc1cc(Oc2nc3ccccn3c(=O)c2/C=C(\C#N)C(=O)NCCc2ccccc2)ccc1Cl | 3%
CCCCNc1nc(=S)n(-c2ccccc2)c(C)c1C(C)=O | 3.05%
Cn1c2c(c(=O)n(C)c1=O)CN(CC1CCCO1)CN2 (stereo not drawn) | 0.66%
CC(=O)c1c(C(C)=O)c(C)n(-c2cc(C)cc(C)c2)c1C | -2.48%
CCCN1CCC(NC2CCN(Cc3ccccc3)CC2)CC1 | 4.28%
CCN(CC)C(=O)c1sc(NC(=O)c2c(-c3ccccc3Cl)noc2C)c(C(=O)OC)c1C | -3.02%
O=C(O)c1ccc(NC(=O)c2ccc3c(c2)C(=O)N(c2ccc(C(=O)O)cc2)C3=O)cc1 | -4.96%
O=C(O)CCCC(=O)NCc1ccc2c(c1)OCO2 | 0.64%
CC(=O)N(C)c1ccc(NC(=O)COc2cccc(C)c2)cc1 | -2.09%
Cc1ccc2c(Sc3ccc(Cl)cc3)c(C(=O)N3CCOCC3)[nH]c2c1 | -5.1%
CC1(C)CC(=O)C2=C(C1)N(c1ccc(Cl)cc1)C(N)=C(C#N)C2c1ccc2c(c1)OCO2 (stereo not drawn) | 5.31%
Cc1ccsc1CN1CCc2c([nH]c3ccccc23)C1 | -2.81%
Cn1c(=O)[nH]c(=O)c2c1nc(N1CCN(Cc3ccccc3)CC1)n2Cc1ccccc1F | -6.43%
